Reference: PubChem BioAssay AID504333 (National Center for Advancing Translational Sciences (NCATS), 2011)
In all, about 360,000 compounds went through this assay and about 16,000 (4.4%) were called active. Inconclusive results, whose numbers are uncertain, are shown with a selection of clear calls. Calls come from the whole dose curve; as a rule, active = well fitted inhibition curve with a large enough effect; inconclusive = small, poorly fitted or top-dose-only effect; inactive = no such curve, though single readings can be large or run the other way. Potencies of inconclusive entries are doubtful fits and often do not repeat.

Biological target: Bromodomain adjacent to zinc finger domain protein 2B (Homo sapiens) (UniProt Q9UIF8)
Sequence of UniProt Q9UIF8 (Q9UIF8 whole entry, looked up, the tested form may be a part): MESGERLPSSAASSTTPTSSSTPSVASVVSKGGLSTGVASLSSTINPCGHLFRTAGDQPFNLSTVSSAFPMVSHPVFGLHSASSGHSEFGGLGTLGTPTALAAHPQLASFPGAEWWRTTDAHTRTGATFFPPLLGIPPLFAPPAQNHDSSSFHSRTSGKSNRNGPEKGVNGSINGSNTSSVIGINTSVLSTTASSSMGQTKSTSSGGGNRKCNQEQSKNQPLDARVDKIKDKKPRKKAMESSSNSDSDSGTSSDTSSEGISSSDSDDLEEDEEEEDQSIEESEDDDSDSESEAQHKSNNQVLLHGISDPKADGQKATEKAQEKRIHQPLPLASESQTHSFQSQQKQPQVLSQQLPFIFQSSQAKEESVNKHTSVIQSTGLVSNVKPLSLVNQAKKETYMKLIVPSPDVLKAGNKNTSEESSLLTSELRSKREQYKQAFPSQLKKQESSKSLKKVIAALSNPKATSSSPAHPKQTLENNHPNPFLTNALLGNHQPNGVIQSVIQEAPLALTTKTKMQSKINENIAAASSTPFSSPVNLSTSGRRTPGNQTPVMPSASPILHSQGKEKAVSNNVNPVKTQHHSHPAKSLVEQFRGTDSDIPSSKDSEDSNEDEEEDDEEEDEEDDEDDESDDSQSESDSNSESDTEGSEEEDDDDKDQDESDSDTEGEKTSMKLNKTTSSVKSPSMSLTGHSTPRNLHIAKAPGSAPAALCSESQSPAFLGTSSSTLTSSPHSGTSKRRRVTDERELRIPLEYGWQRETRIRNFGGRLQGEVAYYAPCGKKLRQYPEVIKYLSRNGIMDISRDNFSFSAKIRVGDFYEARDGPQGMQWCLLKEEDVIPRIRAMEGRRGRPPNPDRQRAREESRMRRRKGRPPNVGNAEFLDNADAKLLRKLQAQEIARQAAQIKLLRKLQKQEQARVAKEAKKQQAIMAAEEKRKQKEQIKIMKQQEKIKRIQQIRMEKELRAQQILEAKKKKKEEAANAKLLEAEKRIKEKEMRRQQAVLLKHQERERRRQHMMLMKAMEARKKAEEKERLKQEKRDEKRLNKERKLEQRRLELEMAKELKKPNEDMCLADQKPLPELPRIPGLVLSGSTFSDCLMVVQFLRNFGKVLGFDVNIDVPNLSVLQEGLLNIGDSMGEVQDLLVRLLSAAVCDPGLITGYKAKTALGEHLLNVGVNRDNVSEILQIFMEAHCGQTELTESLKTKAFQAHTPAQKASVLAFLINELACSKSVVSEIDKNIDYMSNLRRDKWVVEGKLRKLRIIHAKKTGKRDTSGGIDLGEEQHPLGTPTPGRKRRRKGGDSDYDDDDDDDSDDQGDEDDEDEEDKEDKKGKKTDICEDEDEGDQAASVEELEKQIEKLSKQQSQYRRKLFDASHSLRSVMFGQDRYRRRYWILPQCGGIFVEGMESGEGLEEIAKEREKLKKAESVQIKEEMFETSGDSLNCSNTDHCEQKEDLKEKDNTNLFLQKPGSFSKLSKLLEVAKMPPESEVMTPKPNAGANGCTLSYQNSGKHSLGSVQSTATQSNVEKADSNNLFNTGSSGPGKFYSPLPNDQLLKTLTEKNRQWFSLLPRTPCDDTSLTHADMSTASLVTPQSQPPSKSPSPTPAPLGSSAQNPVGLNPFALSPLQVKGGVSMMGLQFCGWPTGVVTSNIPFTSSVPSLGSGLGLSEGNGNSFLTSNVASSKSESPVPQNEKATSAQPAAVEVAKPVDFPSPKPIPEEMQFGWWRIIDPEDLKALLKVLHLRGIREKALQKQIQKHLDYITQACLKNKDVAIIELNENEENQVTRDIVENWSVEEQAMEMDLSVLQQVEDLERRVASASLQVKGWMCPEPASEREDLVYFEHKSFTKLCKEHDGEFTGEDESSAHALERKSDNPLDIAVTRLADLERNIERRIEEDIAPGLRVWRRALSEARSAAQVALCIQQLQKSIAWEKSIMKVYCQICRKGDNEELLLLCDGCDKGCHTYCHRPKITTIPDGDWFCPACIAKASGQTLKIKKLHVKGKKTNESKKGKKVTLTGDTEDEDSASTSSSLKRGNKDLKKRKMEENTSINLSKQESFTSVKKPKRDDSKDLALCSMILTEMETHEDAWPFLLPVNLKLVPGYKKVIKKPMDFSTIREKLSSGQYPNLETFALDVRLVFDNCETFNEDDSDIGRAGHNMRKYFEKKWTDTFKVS
Test: qHTS Assay for Inhibitors of BAZ2B; note: nearly all actives have a fitted effect of over 60% in size
Conditions: AlphaScreen BAZ2B-H3K14Ac peptide displacement; activity change, negative = inhibition: at 114 µM (top of the series)
How it was run: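 BAZ2B (50 nM) with biotin-H3(5-23)K14Ac peptide (50 nM) in PBS pH 7.4, 0.01% Tween-20, preformed 30 min, then compound 30 min at room temperature; top concentration 110uM. AlphaScreen streptavidin donor/nickel chelate acceptor beads (10 ug/mL final), 20 min dark, signal read.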
% is set by controls: 0 for no effect and ±100 for the full control effect; potency is the fitted concentration of half-maximal effect; tags give direction and shape of the fitted curve.

SMILES	Potency	activity change, negative = inhibition
CCCn1c(SCN2C(=O)c3ccccc3C2=O)nc2cc(Cl)ccc2c1=O	inconclusive: 89.1 µM [inhibitor, single point]	–
O=C(CSc1nccc(=O)[nH]1)N1CCCc2ccccc21	–	inactive: 7.64%
Cc1ccc(C2=Nc3ccc(Br)cc3C(c3ccncc3)=NN2)cc1	inconclusive: 44.7 µM [inhibitor, partial curve, poor fit]	–
O=C(O)c1cc2cc(Cl)cc(Cl)c2oc1=O	inconclusive: 89.1 µM [inhibitor, single point]	–
COc1cccc(CN2CCNC(=O)C2CC(=O)NCCn2nc(C)cc2C)c1OC (centres undefined)	–	inactive: -5.88%
COc1ccc(N2CCN(C(=O)CCC(=O)c3cc(C)sc3C)CC2)cc1	inconclusive: 31.6 µM [inhibitor, full curve]	–
S=c1[nH]nc(C23CC4CC(CC(C4)C2)C3)n1Cc1ccco1	inconclusive: 100 µM [inhibitor, single point]	–
O=S(=O)(c1ccc2c(c1)OCCO2)N1CCC(n2nnc3cc(F)ccc32)CC1	–	inactive: 2.71%
O=C(c1cccc([N+](=O)[O-])c1)N1CCN(c2cccc(Cl)c2)CC1	inconclusive: 44.7 µM [inhibitor, partial curve]	–
O=C(N/N=C/c1ccccc1C(=O)O)c1cc(-c2ccc3c4c(cccc24)CC3)n[nH]1	inconclusive: 79.4 µM [inhibitor, single point]	–
Cc1ccc(CNC(=O)c2cc3sccc3n2Cc2ccc(Cl)cc2)cc1	–	inactive: -8.62%
COc1ccc(CNc2cccc3[nH]c(C(F)(F)F)nc23)cc1OC	active: 50.1 µM	–
N#CC1=C(N)Oc2c(ccc3cccnc23)C1c1cccnc1 (centres undefined)	inconclusive: 89.1 µM [inhibitor, single point]	–
Cc1ccc(-n2ncc3c(=O)n(-c4ccc(C)c(C)c4)c(-c4ccco4)nc32)cc1	inconclusive: 79.4 µM [inhibitor, single point]	–
Cc1cc(N/N=C/c2ccc(N(C)C)cc2)nc(NCc2ccccc2)n1	active: 12.6 µM	–
CC(=O)c1c(C(C)=O)c(C)n(-c2nc(-c3ccc(C)c(C)c3)c(C)s2)c1C	inconclusive: 35.5 µM [inhibitor, full curve]	–
CN(C)c1ccc(-c2noc(C3CCN(C(=O)Nc4ccc(Cl)cc4)CC3)n2)cc1	inconclusive: 7.08 µM [inhibitor, full curve, poor fit]	–
COCCCNC(=S)NNC(=S)Nc1ccc(F)cc1F	inconclusive: 1.58 µM [inhibitor, partial curve]	–
COc1cc2ccccc2cc1C(=O)Nc1ccc2oc(-c3ccc(F)cc3)nc2c1	–	inactive: -1.68%
Cc1nn(-c2ccccc2)c2c1C(c1c(C)[nH]c(C#N)c1C)C(C#N)=C(N)O2 (centres undefined)	inconclusive: 35.5 µM [inhibitor, partial curve]	–
COc1ccc(/C=C2\CCc3ccccc3C2=O)cc1O	inconclusive: 70.8 µM [inhibitor, single point]	–
COc1ccc(-c2csc(N(CCCN(C)C)C(=O)c3ccc(Br)cc3)n2)cc1	active: 44.7 µM	–

SMILES	Potency	activity change, negative = inhibition
COc1ccc(C2=NNC(c3ccco3)=Nc3ccc(F)cc32)cc1	inconclusive: 44.7 µM [inhibitor, partial curve]	–
Cc1ccc(NC(=O)[C@H](NC(=O)[C@@H]2Cc3ccccc3CN2)c2ccccc2)cc1C	inconclusive: 70.8 µM [inhibitor, single point]	–
Cc1c(Cl)cccc1-c1ccc(CNc2ccc3[nH]c(=O)[nH]c3c2)o1	–	inactive: -27.1%
CN(C)c1ccc(C(C(=O)NC2CCCCC2)N(Cc2ccco2)C(=O)c2snc(C(N)=O)c2N)cc1 (centres undefined)	active: 39.8 µM	–
CCC(C)(C)n1nnnc1C(c1ccc(N(C)C)cc1)N1CCN(C2CCCCC2)CC1 (centres undefined)	inconclusive: 100 µM [inhibitor, single point]	–
CCCc1cnc2c(c1SCC(=O)N(C)c1ccccc1)c(=O)n(C)c(=O)n2C	–	inactive: -13.2%
CC(=C1C(=O)c2ccccc2C1=O)N1CCN(C/C=C/c2ccccc2)CC1	inconclusive: 89.1 µM [inhibitor, single point]	–
COc1cc(C(=O)O)cc(OC)c1OCc1cc(C(=O)O)oc1C	inconclusive: 79.4 µM [inhibitor, single point]	–
S=C(NCCc1ccccc1)NN=C1CCCCCC1	inconclusive: 44.7 µM [inhibitor, partial curve, poor fit]	–
Cc1c(N=N/C(C(=O)Nc2ccccc2)=C(/O)c2ccccc2)c(=O)n(-c2ccccc2)n1C	active: 8.91 µM	–
CC(=O)N(C(C)=O)N1C(=O)/C(=C/c2ccc(Cl)cc2)SC1=S	active: 28.2 µM	–
c1ccc(-c2nc(-c3ccco3)n3ccccc23)cc1	inconclusive: 89.1 µM [inhibitor, single point]	–
Clc1cccc(N2CCN(c3nc4ccccc4n4cnnc34)CC2)c1	–	inactive: 1.51%
CCn1c(=O)n(CC(=O)Nc2cc(OC)c(OC)c(OC)c2)c(=O)c2ccccc21	–	inactive: -5.75%
Oc1ccc(-c2nc3ccccn3c2NCc2ccco2)cc1	inconclusive: 44.7 µM [inhibitor, partial curve]	–
CCn1c2ccc(C)cc2c2nnc(NN)nc21	inconclusive: 6.31 µM [inhibitor, partial curve, poor fit]	–
CCOC(=O)c1[nH]cnc1C(=O)Nc1ccc([N+](=O)[O-])cc1	inconclusive: 89.1 µM [inhibitor, single point]	–
COc1ccc(CN2CCN(C(C)C(=O)NC(C)c3ccc(F)cc3)CC2)cc1F (centres undefined)	–	inactive: -3.68%
CCOc1cc(-c2ccc(OC(=O)c3ccccc3F)cc2)cc(=O)c2c(C)oc(C)c12	inconclusive: 79.4 µM [inhibitor, single point]	–
Cc1nc(C)c(C(=O)N(c2ccc(C)c(C)c2)C(C(=O)NCc2ccco2)c2ccccc2)s1 (centres undefined)	inconclusive: 89.1 µM [inhibitor, single point]	–
O=C(Nc1c(C(=O)N2CCOCC2)oc2ccccc12)c1cccc([N+](=O)[O-])c1	inconclusive: 70.8 µM [inhibitor, single point]	–
C=C(C)C(=O)Nc1cccc(C2=NOC3(C2)C[C@@H](C(N)=O)N(C(=O)c2ccc(OC)cc2)C3)c1 (some centres undefined)	active: 1.78 µM	–
